Among the data in the supplement of paper PMC10126150 are switch fluorescence ratio values, retold here.

Values marked as one replicate rest on one cluster of the flow cell; about a third of the high ones do not repeat.

For the series, the system named is ATP. The series is described as follows: switch fluorescence ratio, 500 uM ATP over buffer (Cy3 cluster intensity, sum of 5 cycles each) (fold (ratio)); higher = stronger signal-on switching upon ATP binding; sequences stand for … in TCGTCGGCAGCGTCAGATGTGTATAAGAGACAGTTTTTTTTTTTTTTTTTTTTTTTTT…TC. Particulars: aptamer strand: ATP DNA aptamer (quencher-CACCTGGGGGAGTATTGCGGAGGAAGG + anchor), 100 nM annealed; ATP concentration: 500 uM; one replicate. The procedure, abridged:
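Imaging in selection buffer was followed by imaging after 15 min with 500 uM ATP at 22 °C, for Cy3-labelled switching-strand clusters annealed to 100 nM quencher-labelled ATP aptamer on a modified Illumina MiSeq flow-cell. Five of these buffer/ATP cycles ran, separated by NaOH stripping and re-annealing. The fluorescence ratio per cluster is summed target-cycle over summed buffer-cycle Cy3 intensity, averaged per switch-domain sequence; clusters outside 100-1000 RFU were removed.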
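Also: ATP exposure 15 min at 22 °C before imaging.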

Turning to GCAGGCCTAG, the switch fluorescence ratio worked out at 1.04.
To CTGGCATGAA belongs 1; to CGTGTTCGCC, 0.978.
For TGTTGTCTGG, the switch fluorescence ratio is 0.967.
To ATAAGAAAAT belongs 0.953.
The value for GAGGCAGACA was 1.07; that for AGGTATTTGG was 1.01.
Take CTTAATTTAC: the switch fluorescence ratio is 1.05.
For the sequence AAGTATATCG, the switch fluorescence ratio is 0.951.
The value for CTATGGATGA was 1.01; that for GTGGGACAA was 1.02.
The value for ACTTCTGCAA was 0.781.
To GAGTGGTCCC belongs 1.08.
In the case of GAAGTAATTA, the switch fluorescence ratio turned out to be 0.992.
With AAGGTCCGGT, the switch fluorescence ratio came to 0.974.
ATTCGCTTGG: the switch fluorescence ratio is 1.04.
The value for TAGACATG was 0.992; that for CGACTTCAAT was 1.64; that for TCTGGGCGAA was 0.982.
To TAAAGGATGT belongs 1.03.
The value for AATACATATA was 1.07; that for GGGTAGCGAG was 0.929; that for GATAACGGGT was 0.991.
For the sequence AAATTAAATG, the switch fluorescence ratio came out at 1.02.
To GAGGACATTC belongs 1.
To GCATGACGTG belongs 1.01.
To ATAGCATTGA belongs 1.05; to AAAGCCATAT, 1.06.
For TATTTGGCGC, the switch fluorescence ratio amounted to 0.984.
The value for AGTTCGAAGT was 1.02; that for TGTTAATTCC was 1.02; that for GCCCTAGTAC was 1.15.
The value for AATTTTAAAG was 0.972.
The value for AGAAGGAGGC was 1.02; that for TATAGCATAA was 1.07; that for GTGCAACTTT was 0.983.
As for CGGCAGGGCC, the switch fluorescence ratio was determined as 0.99.
The value for TTGAGTCAGG was 1.06.
The value for TTGATTTTC was 0.95; that for ATTAAGGTTG was 0.996.
For the sequence AATATTGTCA, the switch fluorescence ratio came out at 1.02.
The value for CATGGTGGAT was 1.05.
For AGCCCGCGTT, the switch fluorescence ratio amounted to 1.03.
In the case of TTTGTCTGTA, the switch fluorescence ratio is 0.974.
To CTGATAGCCT belongs 1.11; to AGCATCCTTT, 1.01.
To GTGGTGGAGC belongs 0.964; to TTAAATCCCA, 1.04; to ATCGGGTGTT, 1.06.
To ATCGTACCGG belongs 1.02.
For AAGGGGCTGT, the switch fluorescence ratio is 0.989.
The value for CTGTTAACCT was 1.77.
The value for TAGGGCCAT was 1.01; that for TCGACATCTC was 1.03.
With CGCCTACAG, the switch fluorescence ratio is 1.08.
Turning to TACTCTTTCC, the switch fluorescence ratio turned out to be 1.15.
To CTGTGCGCAG belongs 1.14; to TTAGTTTCAT, 1.08; to GGGAAGATCA, 1.03.
As to ACTAAACTGG, the switch fluorescence ratio was found to be 1.1.
The value for TTTTACCGAC was 1.06; that for TATGACCATT was 0.957; that for CCCGGCGGGT was 1.
To GAACAGAGTC belongs 1.04.
The value for TCAAAAATTA was 0.979.
TGGGAGCCGA: the switch fluorescence ratio worked out at 1.1.
GCTCATAGGG: the switch fluorescence ratio was 0.982.
CGTGTTAGAT: the switch fluorescence ratio worked out at 0.977.
To ATTTTAATTA belongs 0.996.
The value for AGCGAGCGTT was 1.02; that for AGCGTAGGTG was 1.03.
As for ATCTATAGGA, the switch fluorescence ratio stood at 0.958.
The value for TGTGAATGTG was 0.978.
The value for TTCTCCTGAA was 1.07.
To CCTTTTCGTT belongs 1.05; to GTTGCCAGCG, 0.995.
For the sequence TTTGAGGCGA, the switch fluorescence ratio amounted to 1.1.
To AGCAAATGGC belongs 1.15; to TGGAACATAC, 1.34.
In the case of AGCTCGTTGA, the switch fluorescence ratio was 0.982.
To AGCGTGGTGT belongs 1.02; to TCATCACCCG, 1.02.
To CCGAGGTGAG belongs 1.09; to GAGGTGTGCT, 0.98.
On to ATGTCCTTTC, for which the switch fluorescence ratio amounted to 1.23.
The value for CAGGATGGTA was 0.976; that for GGTCGTTACT was 1.
The value for ATACGTTGTG was 0.988.
To AAGCTCGTGT belongs 1.01; to GGGACGAGAG, 1.03; to GCAGTACCTT, 1.2.
For the sequence CGTAACGGGG, the switch fluorescence ratio was found to be 0.96.
To CGCCCGC belongs 1.14; to GGAAATGGTC, 0.93.
To TTGCAGTTTT belongs 0.958.
To GCTCGGTGCG belongs 0.922.
CGCTGATCAA: the switch fluorescence ratio was 1.01.
On to AAGTATGCAA, for which the switch fluorescence ratio came out at 1.01.
To GACTGAGCCT belongs 1.06; to CGCTGCGTTG, 1.
The value for AGGTACGGTG was 1.06; that for TAGGACCGAA was 0.994; that for GAGCAAAATG was 1.08.
With TGACACGGTG, the switch fluorescence ratio turned out to be 1.05.
As to CGTCACCCGC, the switch fluorescence ratio was determined as 1.14.
The value for CAATTACAAA was 1.01; that for ATGGTTATAG was 1.03.
To CGATTGATCT belongs 0.978.
To CCACAACGGG belongs 1.06.
Regarding GATGGTACAG, the switch fluorescence ratio is 1.02.
To AAGTGAAAAC belongs 0.94.
Turning to ATTTGCTTAC, the switch fluorescence ratio was 1.27.
As for CAGAGCCCTG, the switch fluorescence ratio stood at 1.03.
On to GTGGTAGCTG, for which the switch fluorescence ratio is 1.05.
With GATGTGCCGT, the switch fluorescence ratio turned out to be 1.07.
To GGATACCGCT belongs 1.01.
The value for TCCGTGACC was 1.34; that for CCGATTGGGG was 1.02.
The value for AGTTCATCTC was 0.986; that for ACCGCGTTAA was 1.15.
